Experimental data from patent US7410975B2, “Small molecule toll-like receptor (TLR) antagonists” (Coley Pharmaceutical Group, Inc., priority 2003, dated 2008).
Structures can show the parent of a compound that is named as a salt.

Target: T1, human TLR8 (hTLR8) (Homo sapiens, UniProt Q9NR97)
T1 construct: expressed in transfected cells
T1 sequence (Q9NR97 27-1041): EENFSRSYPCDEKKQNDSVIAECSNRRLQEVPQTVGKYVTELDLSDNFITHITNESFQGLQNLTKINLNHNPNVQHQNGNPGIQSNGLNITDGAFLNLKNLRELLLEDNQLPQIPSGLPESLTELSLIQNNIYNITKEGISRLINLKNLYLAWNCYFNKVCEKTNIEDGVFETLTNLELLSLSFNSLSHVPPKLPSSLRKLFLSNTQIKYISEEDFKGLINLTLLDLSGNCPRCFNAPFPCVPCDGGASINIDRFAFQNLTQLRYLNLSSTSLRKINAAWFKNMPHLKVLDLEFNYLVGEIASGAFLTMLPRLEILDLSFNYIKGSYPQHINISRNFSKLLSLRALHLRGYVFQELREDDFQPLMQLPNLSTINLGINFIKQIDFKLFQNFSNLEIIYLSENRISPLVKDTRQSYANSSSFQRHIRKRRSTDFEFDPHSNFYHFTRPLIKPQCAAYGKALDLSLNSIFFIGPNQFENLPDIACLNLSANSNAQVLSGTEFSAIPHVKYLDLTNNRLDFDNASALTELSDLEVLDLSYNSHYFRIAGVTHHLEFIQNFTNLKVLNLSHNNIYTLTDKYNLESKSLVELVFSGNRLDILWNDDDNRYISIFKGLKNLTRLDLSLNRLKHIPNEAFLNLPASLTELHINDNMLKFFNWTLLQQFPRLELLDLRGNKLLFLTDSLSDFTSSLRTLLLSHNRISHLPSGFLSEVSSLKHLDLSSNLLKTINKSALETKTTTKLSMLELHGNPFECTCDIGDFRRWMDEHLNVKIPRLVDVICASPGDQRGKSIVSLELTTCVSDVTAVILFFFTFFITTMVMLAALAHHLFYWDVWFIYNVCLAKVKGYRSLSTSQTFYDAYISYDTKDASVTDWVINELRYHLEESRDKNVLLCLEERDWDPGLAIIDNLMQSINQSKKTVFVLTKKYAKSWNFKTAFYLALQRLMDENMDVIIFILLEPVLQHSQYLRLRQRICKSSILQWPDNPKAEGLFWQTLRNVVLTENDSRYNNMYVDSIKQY
Experiment: Antagonist screen, hTLR8-NFκB-293 cells, NF-κB-luciferase reporter, with EC50 of R848
Type: cell-based
Conditions: compound at 0.5, 5, 50 μg/ml, EC50 concentration of R848, 16 h
Procedure: The method is described in greater detail as follows. The cells for each individual cell clone (hTLR3-NFκB-293, hTLR7-NFκB-293, hTLR8-NFκB-293 and hTLR9-NFκB-293) were counted and seeded one day before the stimulation at 1.5×10^4 cells per well in 96-well cell culture plates. To become adherent the cells were incubated after seeding overnight at 37° C. in 5% CO2 humidified air.
The screen for each compound was performed at the same time for all of the receptors TLR3, TLR7, TLR8 and TLR9. Up to fifteen test compounds, each assayed in duplicate at each of three different final concentrations (0.5 μg/ml, 5 μg/ml, and 50 μg/ml), were used for 16 h cell stimulation on a single multiwell culture plate. A 4× final concentration master plate was created to prepare the different test compounds before they were added to the cells.
Controls were added as duplicates individually for each cell clone on the cell culture plate. Positive controls were used as follows (final concentrations): 50 μg/ml poly(I:C) for hTLR3-NFκB-293; 8 μM resiquimod (R848) for hTLR7-NFκB-293; 30 μM R848 for hTLR8-NFκB-293; and 2.5 μM CpG-ODN 2006 for hTLR9-NFκB-293. Media alone was used as negative control. After addition of controls and small molecules, the cell clones were additionally stimulated with the EC50 concentration of the appropriate receptor-specific ligand. […]
The baseline result (measured with addition of the EC50 concentration of the receptor-specific ligand) for each cell culture plate was measured as described above. Antagonistic effects were measured by down regulation compared to the baseline. Antagonists were scored as follows: • 13: compounds for which there was clear down regulation at 0.5 μg/ml, 5 μg/ml, and 50 μg/ml; • 12: compounds for which there was clear down regulation at 5 μg/ml and 50 μg/ml; • 11: compounds for which there was clear down regulation only at 50 μg/ml; • —: compounds for which there was no clear down regulation even at 50 μg/ml. […]
Results were expressed as fold induction over baseline luciferase activity measured in the absence of R848. […]

SMILES	hTLR8 (inhibitory effect, antagonist score)
CN1CCC[C@@H]1CCO[C@](C)(c1ccccc1)c1ccc(Cl)cc1.O=C(O)/C=C/C(=O)O [compound 306, Clemastine fumarate]	11 (compounds for which there was clear down regulation only at 50 μg/ml)
Cc1ccccc1C(OCCN(C)C)c1ccccc1 (stereo not drawn) [compound 239, Orphenadrinehydrochloride]	— (compounds for which there was no clear down regulation even at 50 μg/ml)
CN1CCN2c3ccccc3Cc3ccccc3C2C1.Cl (stereo not drawn) [compound 99, Mianserinehydrochloride]	— (compounds for which there was no clear down regulation even at 50 μg/ml)
